# In PMC9911399, “Two distinct binding modes provide the RNA-binding protein RbFox with extraordinary sequence specificity”:
# Where a chain is given by its changes, count along the chain named. This is one part of the list.
# T1: RBFOX1 RRM (Homo sapiens, UniProt Q9NWB1 109-208)
# T1 sequence: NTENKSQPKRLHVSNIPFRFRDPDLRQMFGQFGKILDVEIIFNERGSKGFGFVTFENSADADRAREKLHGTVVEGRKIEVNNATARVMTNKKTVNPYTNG
# B1: UGCAUUU (DNA:RNA)
# RNA: GGGAGACCGGAAUUCAGAUUGUCCUGCAUUUUUAAAUCCCGUCGUAGCCACCA
# DNA 1: CAATCTGAATTCCGGTCTCCC
# DNA 2: TGGTGGCTACGACGGGATT
# B2: CAGUGUA (DNA:RNA)
# RNA: B1 RNA with U25C, G26A, C27G, A28U, U29G, U31A
# DNA 1: CAATCTGAATTCCGGTCTCCC
# DNA 2: TGGTGGCTACGACGGGATT
# B3: GCAGCGC (DNA:RNA)
# RNA: GGGAGACCGGAAUUCAGAUUGUCCGCAGCGCUUAAAUCCCGUCGUAGCCACCA
# DNA 1: CAATCTGAATTCCGGTCTCCC
# DNA 2: TGGTGGCTACGACGGGATT
# B4: GUUUCGC (DNA:RNA)
# RNA: B3 RNA with C26U, A27U, G28U
# DNA 1: CAATCTGAATTCCGGTCTCCC
# DNA 2: TGGTGGCTACGACGGGATT
# B5: UUGCACG (DNA:RNA)
# RNA: B1 RNA with G26U, C27G, A28C, U29A, U30C, U31G
# DNA 1: CAATCTGAATTCCGGTCTCCC
# DNA 2: TGGTGGCTACGACGGGATT
# B6: GAAUGCC (DNA:RNA)
# RNA: B3 RNA with C26A, G28U, C29G, G30C
# DNA 1: CAATCTGAATTCCGGTCTCCC
# DNA 2: TGGTGGCTACGACGGGATT
# B7: CUUUCUA (DNA:RNA)
# RNA: B3 RNA with G25C, C26U, A27U, G28U, G30U, C31A
# DNA 1: CAATCTGAATTCCGGTCTCCC
# DNA 2: TGGTGGCTACGACGGGATT
# B8: UGUCCGG (DNA:RNA)
# RNA: B3 RNA with G25U, C26G, A27U, G28C, C31G
# DNA 1: CAATCTGAATTCCGGTCTCCC
# DNA 2: TGGTGGCTACGACGGGATT
# B9: AUUACCA (DNA:RNA)
# RNA: B3 RNA with G25A, C26U, A27U, G28A, G30C, C31A
# DNA 1: CAATCTGAATTCCGGTCTCCC
# DNA 2: TGGTGGCTACGACGGGATT
# B10: AAAUUCA (DNA:RNA)
# RNA: B3 RNA with G25A, C26A, G28U, C29U, G30C, C31A
# DNA 1: CAATCTGAATTCCGGTCTCCC
# DNA 2: TGGTGGCTACGACGGGATT
# B11: AUGUGGC (DNA:RNA)
# RNA: B3 RNA with G25A, C26U, A27G, G28U, C29G
# DNA 1: CAATCTGAATTCCGGTCTCCC
# DNA 2: TGGTGGCTACGACGGGATT
# B12: GAAAUCG (DNA:RNA)
# RNA: B3 RNA with C26A, G28A, C29U, G30C, C31G
# DNA 1: CAATCTGAATTCCGGTCTCCC
# DNA 2: TGGTGGCTACGACGGGATT
# B13: ACGAUGA (DNA:RNA)
# RNA: B3 RNA with G25A, A27G, G28A, C29U, C31A
# DNA 1: CAATCTGAATTCCGGTCTCCC
# DNA 2: TGGTGGCTACGACGGGATT
# B14: UUUCGGU (DNA:RNA)
# RNA: B1 RNA with G26U, C27U, A28C, U29G, U30G
# DNA 1: CAATCTGAATTCCGGTCTCCC
# DNA 2: TGGTGGCTACGACGGGATT
# B15: CGCGUCA (DNA:RNA)
# RNA: B1 RNA with U25C, A28G, U30C, U31A
# DNA 1: CAATCTGAATTCCGGTCTCCC
# DNA 2: TGGTGGCTACGACGGGATT
# B16: GCAGAGC (DNA:RNA)
# RNA: B3 RNA with C29A
# DNA 1: CAATCTGAATTCCGGTCTCCC
# DNA 2: TGGTGGCTACGACGGGATT
# B17: CCAAGAC (DNA:RNA)
# RNA: B3 RNA with G25C, G28A, C29G, G30A
# DNA 1: CAATCTGAATTCCGGTCTCCC
# DNA 2: TGGTGGCTACGACGGGATT
# B18: GUUUGCG (DNA:RNA)
# RNA: B3 RNA with C26U, A27U, G28U, C29G, G30C, C31G
# DNA 1: CAATCTGAATTCCGGTCTCCC
# DNA 2: TGGTGGCTACGACGGGATT
# B19: AGUGGGU (DNA:RNA)
# RNA: B3 RNA with G25A, C26G, A27U, C29G, C31U
# DNA 1: CAATCTGAATTCCGGTCTCCC
# DNA 2: TGGTGGCTACGACGGGATT
# B20: CCUGACU (DNA:RNA)
# RNA: B3 RNA with G25C, A27U, C29A, G30C, C31U
# DNA 1: CAATCTGAATTCCGGTCTCCC
# DNA 2: TGGTGGCTACGACGGGATT
# Molecular target: T1, RBFOX1 RRM
# Test: EMSA; HiTS-Eq, 1 nM pool, 10 min; buffer printed only for the single-RNA assays: 10 mM Tris pH 7.5, 150 mM NaCl, 3.4 mM EDTA, 0.001% NP-40, 30 C
# Conditions: tags: His6 N-terminal (pET28a); label: 5' 32P
# Outline: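 Purified RbFox RRM, wild type or mutant, was incubated for 10 min in 50 µL with 1 nM of a 5′-radiolabelled RNA pool carrying 7 randomized nucleotides, whose flanks were annealed to DNA oligonucleotides, over a series of increasing protein concentrations. Unbound RNA was resolved on 8% native PAGE, cut out, reverse-transcribed, barcoded by PCR and sequenced on an Illumina HiSeq 2500. Relative association constants were derived from changes in read counts for each RNA species versus the control reaction and normalised to the cognate motif.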
row,Binder,binding signal
1,B1,0.0179 KA relative to UGCAUGU
2,B2,0.00759 KA relative to UGCAUGU
3,B3,0.0165 KA relative to UGCAUGU
4,B4,0.0197 KA relative to UGCAUGU
5,B5,0.692 KA relative to UGCAUGU
6,B6,0.0227 KA relative to UGCAUGU
7,B7,0.00848 KA relative to UGCAUGU
8,B8,0.00998 KA relative to UGCAUGU
9,B9,0.00219 KA relative to UGCAUGU
10,B10,0.000334 KA relative to UGCAUGU
11,B11,0.0111 KA relative to UGCAUGU
12,B12,0.00822 KA relative to UGCAUGU
13,B13,0.00971 KA relative to UGCAUGU
14,B14,0.014 KA relative to UGCAUGU
15,B15,0.00633 KA relative to UGCAUGU
16,B16,0.0144 KA relative to UGCAUGU
17,B17,0.00366 KA relative to UGCAUGU
18,B18,0.0282 KA relative to UGCAUGU
19,B19,0.0107 KA relative to UGCAUGU
20,B20,0.0116 KA relative to UGCAUGU
